Assay results taken from PMC10435562, “VEGF-B prevents excessive angiogenesis by inhibiting FGF2/FGFR1 pathway” (Signal Transduction and Targeted Therapy, 2023).
No constants are given. Whether binding was seen depends on the method and setting. For some assays here: In cells and extracts the contact can be indirect. Some results given as binding are weak or reduced against the parent protein; the word gives no strength.

The chains behind the UniProt entries cited, without tags or fusion partners. Where a name states a change or a piece, a line headed by the entry shows the natural chain unless it says otherwise. Residues count along the entry.
UniProt P11362: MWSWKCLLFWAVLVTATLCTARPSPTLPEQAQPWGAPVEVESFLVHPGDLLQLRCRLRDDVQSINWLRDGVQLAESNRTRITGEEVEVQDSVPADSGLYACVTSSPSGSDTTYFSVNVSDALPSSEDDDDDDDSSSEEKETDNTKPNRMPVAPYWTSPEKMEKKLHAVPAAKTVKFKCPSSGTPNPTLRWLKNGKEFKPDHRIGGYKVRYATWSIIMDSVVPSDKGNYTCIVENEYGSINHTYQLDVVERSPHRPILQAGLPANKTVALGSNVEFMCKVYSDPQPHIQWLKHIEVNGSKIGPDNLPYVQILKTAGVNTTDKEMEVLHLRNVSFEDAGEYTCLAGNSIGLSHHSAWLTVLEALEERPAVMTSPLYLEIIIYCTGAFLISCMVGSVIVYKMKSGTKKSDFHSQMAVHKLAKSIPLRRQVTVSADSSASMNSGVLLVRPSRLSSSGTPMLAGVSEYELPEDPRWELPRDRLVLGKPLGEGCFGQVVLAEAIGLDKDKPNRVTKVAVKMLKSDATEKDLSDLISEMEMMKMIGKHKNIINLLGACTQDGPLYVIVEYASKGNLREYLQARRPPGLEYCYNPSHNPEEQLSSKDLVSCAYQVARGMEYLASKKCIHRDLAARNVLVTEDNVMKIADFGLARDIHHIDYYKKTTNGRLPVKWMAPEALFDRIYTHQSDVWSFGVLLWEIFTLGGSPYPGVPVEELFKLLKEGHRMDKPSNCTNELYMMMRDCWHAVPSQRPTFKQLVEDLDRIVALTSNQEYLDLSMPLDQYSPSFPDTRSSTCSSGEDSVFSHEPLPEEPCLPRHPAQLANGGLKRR
FGFR1 (endogenous in HRECs) (human (endogenous in HRECs)): residues 22-822 of P11362
UniProt P09038, residues 143-288: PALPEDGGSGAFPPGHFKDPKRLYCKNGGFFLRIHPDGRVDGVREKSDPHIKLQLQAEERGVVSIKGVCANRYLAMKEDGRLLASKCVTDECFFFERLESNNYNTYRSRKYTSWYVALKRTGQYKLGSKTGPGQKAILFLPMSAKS
UniProt P16092, residues 22-822: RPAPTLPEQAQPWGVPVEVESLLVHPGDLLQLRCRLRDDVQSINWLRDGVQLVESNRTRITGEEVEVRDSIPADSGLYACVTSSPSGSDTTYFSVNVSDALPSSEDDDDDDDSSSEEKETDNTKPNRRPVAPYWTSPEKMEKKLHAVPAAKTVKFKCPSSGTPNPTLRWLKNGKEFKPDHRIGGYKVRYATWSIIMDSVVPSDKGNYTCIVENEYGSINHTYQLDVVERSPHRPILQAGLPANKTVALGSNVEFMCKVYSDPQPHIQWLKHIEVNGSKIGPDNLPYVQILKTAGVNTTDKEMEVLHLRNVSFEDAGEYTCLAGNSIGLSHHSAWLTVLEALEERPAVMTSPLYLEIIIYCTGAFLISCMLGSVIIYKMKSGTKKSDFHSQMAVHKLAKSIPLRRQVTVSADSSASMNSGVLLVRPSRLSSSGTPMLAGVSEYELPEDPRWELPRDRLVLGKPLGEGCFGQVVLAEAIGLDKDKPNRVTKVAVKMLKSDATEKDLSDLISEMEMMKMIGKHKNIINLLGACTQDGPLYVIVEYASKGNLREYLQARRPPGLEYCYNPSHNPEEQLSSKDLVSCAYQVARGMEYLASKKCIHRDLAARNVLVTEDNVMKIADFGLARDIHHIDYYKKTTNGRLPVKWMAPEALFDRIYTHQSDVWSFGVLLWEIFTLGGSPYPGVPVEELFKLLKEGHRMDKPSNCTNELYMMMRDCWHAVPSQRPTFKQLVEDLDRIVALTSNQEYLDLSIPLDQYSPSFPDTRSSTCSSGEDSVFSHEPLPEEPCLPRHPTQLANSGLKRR
UniProt P17948, residues 27-1338: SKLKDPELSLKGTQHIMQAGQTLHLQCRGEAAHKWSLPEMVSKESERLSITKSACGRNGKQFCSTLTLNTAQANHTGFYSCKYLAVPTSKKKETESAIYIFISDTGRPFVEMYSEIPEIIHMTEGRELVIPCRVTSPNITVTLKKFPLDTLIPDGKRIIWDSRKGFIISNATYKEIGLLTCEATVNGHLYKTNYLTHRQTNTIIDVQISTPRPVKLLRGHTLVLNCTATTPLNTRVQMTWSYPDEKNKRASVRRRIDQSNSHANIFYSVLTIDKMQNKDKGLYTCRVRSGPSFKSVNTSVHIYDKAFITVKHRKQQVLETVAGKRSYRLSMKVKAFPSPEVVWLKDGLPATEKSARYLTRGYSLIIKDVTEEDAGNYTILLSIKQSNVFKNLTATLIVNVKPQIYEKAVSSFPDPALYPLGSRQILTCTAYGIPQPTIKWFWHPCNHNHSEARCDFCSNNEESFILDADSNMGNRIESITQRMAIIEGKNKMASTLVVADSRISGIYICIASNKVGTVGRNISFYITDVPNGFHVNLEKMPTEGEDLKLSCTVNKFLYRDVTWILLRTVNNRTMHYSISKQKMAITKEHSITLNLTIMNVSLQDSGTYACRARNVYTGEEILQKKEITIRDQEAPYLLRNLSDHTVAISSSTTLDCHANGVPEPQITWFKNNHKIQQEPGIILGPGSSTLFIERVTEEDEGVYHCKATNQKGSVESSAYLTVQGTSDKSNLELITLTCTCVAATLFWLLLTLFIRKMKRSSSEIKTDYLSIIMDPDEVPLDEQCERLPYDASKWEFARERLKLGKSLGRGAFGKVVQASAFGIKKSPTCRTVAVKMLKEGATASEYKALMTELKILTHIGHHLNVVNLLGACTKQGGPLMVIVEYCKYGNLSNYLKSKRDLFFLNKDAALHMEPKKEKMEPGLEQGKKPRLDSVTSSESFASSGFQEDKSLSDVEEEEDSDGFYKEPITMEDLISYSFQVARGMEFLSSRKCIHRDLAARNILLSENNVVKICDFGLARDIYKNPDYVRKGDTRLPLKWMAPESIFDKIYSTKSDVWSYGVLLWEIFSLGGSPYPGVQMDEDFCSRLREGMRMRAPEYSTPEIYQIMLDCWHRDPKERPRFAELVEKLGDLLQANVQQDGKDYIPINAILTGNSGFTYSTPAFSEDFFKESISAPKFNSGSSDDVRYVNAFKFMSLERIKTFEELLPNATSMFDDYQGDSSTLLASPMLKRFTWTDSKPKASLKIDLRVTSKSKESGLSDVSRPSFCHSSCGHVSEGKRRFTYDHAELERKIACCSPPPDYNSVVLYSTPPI

B1: VEGFR1 (mouse, endogenous) (receptor, UniProt P35969 23-1333)
chain: YGSGSKLKVPELSLKGTQHVMQAGQTLFLKCRGEAAHSWSLPTTVSQEDKRLSITPPSACGRDNRQFCSTLTLDTAQANHTGLYTCRYLPTSTSKKKKAESSIYIFVSDAGSPFIEMHTDIPKLVHMTEGRQLIIPCRVTSPNVTVTLKKFPFDTLTPDGQRITWDSRRGFIIANATYKEIGLLNCEATVNGHLYQTNYLTHRQTNTILDVQIRPPSPVRLLHGQTLVLNCTATTELNTRVQMSWNYPGKATKRASIRQRIDRSHSHNNVFHSVLKINNVESRDKGLYTCRVKSGSSFQSFNTSVHVYEKGFISVKHRKQPVQETTAGRRSYRLSMKVKAFPSPEIVWLKDGSPATLKSARYLVHGYSLIIKDVTTEDAGDYTILLGIKQSRLFKNLTATLIVNVKPQIYEKSVSSLPSPPLYPLGSRQVLTCTVYGIPRPTITWLWHPCHHNHSKERYDFCTENEESFILDPSSNLGNRIESISQRMTVIEGTNKTVSTLVVADSQTPGIYSCRAFNKIGTVERNIKFYVTDVPNGFHVSLEKMPAEGEDLKLSCVVNKFLYRDITWILLRTVNNRTMHHSISKQKMATTQDYSITLNLVIKNVSLEDSGTYACRARNIYTGEDILRKTEVLVRDSEAPHLLQNLSDYEVSISGSTTLDCQARGVPAPQITWFKNNHKIQQEPGIILGPGNSTLFIERVTEEDEGVYRCRATNQKGAVESAAYLTVQGTSDKSNLELITLTCTCVAATLFWLLLTLFIRKLKRSSSEVKTDYLSIIMDPDEVPLDEQCERLPYDASKWEFARERLKLGKSLGRGAFGKVVQASAFGIKKSPTCRTVAVKMLKEGATASEYKALMTELKILTHIGHHLNVVNLLGACTKQGGPLMVIVEYCKYGNLSNYLKSKRDLFCLNKDAALHMELKKESLEPGLEQGQKPRLDSVSSSSVTSSSFPEDRSVSDVEGDEDYSEISKQPLTMEDLISYSFQVARGMEFLSSRKCIHRDLAARNILLSENNVVKICDFGLARDIYKNPDYVRRGDTRLPLKWMAPESIFDKVYSTKSDVWSYGVLLWEIFSLGGSPYPGVQMDEDFCSRLKEGMRMRTPEYATPEIYQIMLDCWHKDPKERPRFAELVEKLGDLLQANVQQDGKDYIPLNAILTRNSGFTYSTPTFSEDLFKDGFADPHFHSGSSDDVRYVNAFKFMSLERIKTFEELSPNSTSMFEDYQLDTSTLLGSPLLKRFTWTETKPKASMKIDLRIASKSKEAGLSDLPRPSFCFSSCGHIRPVQDDESELGKESCCSPPPDYNSVVLYSSPPA
B2: Human VEGF-B167 (ligand, UniProt P49765-2 22-188, looked up)
chain: PVSQPDAPGHQRKVVSWIDVYTRATCQPREVVVPLTVELMGTVAKQLVPSCVTVQRCGGCCPDDGLECVPTGQHQVRMQILMIRYPSSQLGEMSLEEHSQCECRPKKKDSAVKPDSPRPLCPRCTQHHQRPDPRTCRCRCRRRSFLRCQGRGLELNPDTCRCRKLRR
notes: UniProt P49765 is printed for the VEGF-B167 peptides; Bought recombinant protein; source: bought: PeproTech (100-20B)

How the values were obtained:
[1] = target: wild-type FGFR1 overexpressed in HUVECs (UniProt P11362); test: co-IP; immunoprecipitation from HUVECs overexpressing wild-type or mutant FGFR1, with or without VEGF-B
[2] = target: B2; test: SPR; competition: VEGF-B immobilised at 6900 RU on CM5; FGFR1-Fc (200 nM) flowed with 6.25 nM BSA, FGF2 or PlGF, 10 µl/min; both purified
[3] = target: FGF2 (PeproTech) (human) (UniProt P09038); test: ELISA; competition: FGF2 coated (2.5 µg/ml); FGFR1-Fc (0.4 nM) incubated 1 h with VEGF-B or PlGF (3.125-100 nM) before the FGF2-coated wells; bound FGFR1-Fc detected by anti-human IgG-HRP; both purified
[4] = target: FGFR1-Fc (Z03223, Genscript) (UniProt P11362); test: SPR; competition: VEGF-B immobilised at 6900 RU on CM5; FGFR1-Fc (200 nM) flowed with 6.25 nM BSA, FGF2 or PlGF, 10 µl/min; both purified
[5] = target: FGFR1 (endogenous in HRECs) (human (endogenous in HRECs)) (UniProt P11362); test: proximity ligation; in situ PLA (Duolink II) in HRECs treated 30 min with VEGF-B or PlGF (50 ng/ml), fixed and permeabilised; rabbit anti-FGFR1 and mouse anti-VEGFR1
[6] = target: FGFR1-Fc (Z03223, Genscript) (UniProt P11362); test: ELISA; FGFR1-Fc (20 nM) captured by Fc specific anti-human IgG on the plate; biotinylated FGF2 or biotinylated VEGF-B peptides (200 nM) added for 2 h; streptavidin-HRP; both purified
[7] = target: FGFR1 (mouse, endogenous) (mouse (endogenous in mouse tissues)) (UniProt P16092); test: proximity ligation; in situ PLA on mouse retinae after intravitreal injection of VEGF-B or PlGF
[8] = target: FGFR1 (mouse, endogenous) (mouse (endogenous in mouse tissues)) (UniProt P16092); test: co-IP; immunoprecipitation and Western blot from mouse brain, lung and heart, and from retinae after intravitreal injection of VEGF-B or PlGF
[9] = target: FGFR1-Fc (658-FR, R&D Systems) (UniProt P11362); test: ELISA; competition: FGF2 coated (2.5 µg/ml); FGFR1-Fc (0.4 nM) incubated 1 h with VEGF-B or PlGF (3.125-100 nM) before the FGF2-coated wells; bound FGFR1-Fc detected by anti-human IgG-HRP; both purified

binding [6]	Molecule	further results
–	VEGFR1 (in HUVECs) (from UniProt P17948 27-1338) (receptor)	binding [1]: binds
–	FGFR1-Fc (Z03223, Genscript) (from UniProt P11362 22-376) (Fc fusion)	binding [2]: binds
–	FGFR1-Fc (658-FR, R&D Systems) (from UniProt P11362 22-376) (Fc fusion)	binding [3]: binds
–	FGF2 (PeproTech) (from UniProt P09038 143-288) (ligand)	binding [4]: binds
–	VEGFR1 (endogenous in HRECs) (from UniProt P17948 27-1338) (receptor)	binding [5]: binds
binds	biotinylated FGF2 (BFF-H4117, Acro Biosystems) (from UniProt P09038 143-288) (ligand)	–
binds	CRCRCRRRSFLRCQGRGLEL (biotin (position not given)) [VEGF-B synthetic peptide 10]	–
binds weakly	GEMSLEEHSQCECRPKKKDS (biotin (position not given)) [VEGF-B synthetic peptide 7]	–
binds weakly	SWIDVYTRATCQPREVVVPL (biotin (position not given)) [VEGF-B synthetic peptide 2]	–
no binding (tested: 200 nM)	VVVPLTVELMGTVAKQLVPS (biotin (position not given)) [VEGF-B synthetic peptide 3]	–
no binding (tested: 200 nM)	VRMQILMIRYPSSQLGEMSL (biotin (position not given)) [VEGF-B synthetic peptide 6]	–
no binding (tested: 200 nM)	PVSQPDAPGHQRKVVSWIDV (biotin (position not given)) [VEGF-B synthetic peptide 1]	–
–	B1	binding [7]: binds; binding [8]: binds
–	B2	binding [9]: binds
binds weakly	KKKDSAVKPDSPRPLCPRCT (biotin (position not given)) [VEGF-B synthetic peptide 8]	–
binds weakly	CPRCTQHHQRPDPRTCRCRC (biotin (position not given)) [VEGF-B synthetic peptide 9]	–
no binding (tested: 200 nM)	CPDDGLECVPTGQHQVRMQI (biotin (position not given)) [VEGF-B synthetic peptide 5]	–
binds weakly	QLVPSCVTVQRCGGCCPDDG (biotin (position not given)) [VEGF-B synthetic peptide 4]	–
binds	RGLELNPDTCRCRKLRR (biotin (position not given)) [VEGF-B synthetic peptide 11]	–
